# In the supplement of paper PMC11417369:
# ± gives the standard deviation of the averaged measurements. The list shows a part of the results.
# Tested on: PfAP2-G AP2 domain (GST-tagged)
# Assay: gcPBM binding intensity (ln(normalized median fluorescence intensity)); higher = stronger DNA binding
# Procedure, shortened: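 Plasmodium falciparum DNA-binding domains carrying a GST tag were expressed in E. coli and applied for 1 h, at about 25 μg on average, to an Agilent 4 × 180k array. The array held primer-extended double-stranded 36-bp intergenic genomic probes together with negative controls, and binding took place in 1× PBS with 1% milk, 0.2 mg/ml BSA, 0.5% salmon testes DNA and 0.03% Triton X-100. An Alexa488 anti-GST antibody detected bound protein, and the array was scanned at 488 nm. Binding intensity is taken as the highest Masliner-normalised natural-log median intensity across replicate spots of either probe orientation.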
row,Sequence,gcPBM binding intensity (ln)
1,ATTGTAAATATAGAAGTGCAAAAGGGTATGAAATGA,10.32 ± 0.021
2,TACAAAAAAAATGTATTTAGGACATATATATGTTTA [XGTACX_negctrl_site455],10.2 ± 0.34
3,AATTAAATATTATAAACACACATATATATTATTTTT [CACACA_site865],9.68 ± 0.23
4,AAACGAACATATAAATGTACATATATATACATATAT [XGTACX_site8086],11 ± 0.64
5,TATGTATTAAATTTTACACACATGATTCTCTATATA [CACACA_site2298],9.91 ± 0.042
6,AATACATTTATGAGCTGTACACATTTATTTGAGCTA [XGTACX_site7695],11.5 ± 1
7,AGTGTAATTTTCCACTGTACTTTTCTTGTATATAAT [XGTACX_site4201],11.6 ± 1.1
8,ATATATATTAATATTTGTACATAAAATTATTTCAAT [XGTACX_site5364],11.2 ± 0.49
9,AAAGTAACACACTAATATTTTAACAAATAATATATA [GTGCAC_negctrl_site132],9.84 ± 0.11
10,TACCTTTCTTATTATTGAAAAGGAATATATAAATAG [CACACA_negctrl_site272],9.94 ± 0.16
11,AATAATAATTTGAATACACACAATAATATATATATA [CACACA_site2059],9.9 ± 0.28
12,ATACAAAAAATCACATGTACATATTCTTAAATGGTA [XGTACX_site8502],11.2 ± 0.71
13,CATATGTATTTATTCACACATATATATATATATATA [CACACA_site4207],10.1 ± 0.32
14,TTATTCTAAAAGTGTTTGCACTTTTATAATCATATA [GTGCAC_site9929],9.95 ± 0.22
15,TATACAGATAAATACACACACACATATATATATATA [CACACA_site4845],10.1 ± 0.24
16,TTATATCATTTTCCTGCACACATAAATTTATATAAT [CACACA_site8257],10.3 ± 0.16
17,ACAAAATATACAAAATGTACAAAATATACAAAATGT [XGTACX_site6467],10.6 ± 0.26
18,TGTATTCCTTTTTATAGTACAATTTAAAAGTATAAA [XGTACX_site2045],11.1 ± 0.69
19,GTACGTTTCTCCAGACTGCACTATACGACTCGTACA [GTGCAC_site9771],10.9 ± 0.47
20,AGAAAGATGCAAGAAACATGCAAAAAAAAAATTTCT [TGCATGCA_site725],9.53 ± 0.29
21,CACAAATATACAAATACACACAAATATACTCATATA [CACACA_site5339],10.145 ± 0.007
22,AAAAAATTATATAATAATAGAACTATACATTTTATT [GTGCAC_negctrl_site645],9.59 ± 0.18

row,Sequence,gcPBM binding intensity (ln)
1,ACATAATATATATATTGTACAAATATATTATTGTTA [XGTACX_site3385],10.8 ± 0.33
2,AGCCACGGGTTATATACACACATAATCAAATAAAAT [CACACA_site6117],10.1 ± 0.11
3,ATTTTTAATGGATAAGTGCATAATATTATGATGCAA,9.99 ± 0.16
4,TATGTAATAAAATATACACACAATATACTTATATAT [CACACA_site3682],9.985 ± 0.021
5,ATTTATAATATTCAAGTGCATATATATTTTTTACTT,9.945 ± 0.092
6,AGCTATATAAATAATACATGCATTGTTCAGGTATTT [TGCATGCA_site964],9.74 ± 0.21
7,TACATAAATTAATAGTCACACACGTATTTTTTATAT [CACACA_site8806],10 ± 0.13
8,TAGTTCCTCAAAAATTTCCTTTGTCATTTTATTCAC [GTGCAC_negctrl_site20],10.17 ± 0.085
9,TATGGAATAAATTTATCCATACATCTTATAACATAT [XGTACX_negctrl_site500],9.885 ± 0.049
10,TAAAGAAATTCTTCATGTACTTATTATTTCTCTTTT [XGTACX_site6817],11.2 ± 0.72
11,GTTATACAAAATAATACATGCATGTCCTACATATAT [TGCATGCA_site320],10.9 ± 0.68
12,TCTATAATATTTTTCACACACCATTTCCTTAAACAC [CACACA_site6747],10.3 ± 0.33
13,AAAAAAATAAAATACAAAATGGCTATACAAAATAAA [GTGCAC_negctrl_site535],9.78 ± 0.16
14,TTTGTTGACGAACACACACACATACATATTTATATA [CACACA_site7141],10.3 ± 0.14
15,TACACGCATAAACACACACACACACCCATATATATA [CACACA_site8114],10.1 ± 0.24
16,TTTATATTTAAAGAAACATGCATTTATCATATATAC [TGCATGCA_site173],9.73 ± 0.071
17,CAATTTATAAAGAAAACACACATATACCTATATACA [CACACA_site6710],10.13 ± 0.014
18,ATTTAAAAAAAAAGACGTACATTTATATAGAATCCT [XGTACX_site6457],11.5 ± 1
19,ATTTTTTTATTTTGAAGTACATAAACTTTATATATA [XGTACX_site1746],11.4 ± 0.91
20,ATTACATATGTCGCTTGTACGCATAATTTTTTTATA [XGTACX_site5782],11.6 ± 1
21,ATTACCAAAAAAAGGTGTACAAATATAATTATGAAA [XGTACX_site44],11.5 ± 0.8
22,AAAAAATATACATATTGTACATTTTTTATTAACACA [XGTACX_site6415],10.8 ± 0.49
